Measured values taken from ChEMBL document CHEMBL1201862, “PubChem BioAssay data set” (2004).
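Cells were grown in 96-well plates and exposed to each compound for 48 hours at five concentrations; endpoints were interpolated linearly between bracketing concentrations, or set to the highest concentration if not reached. GI50 marks 50% less growth.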 Active and inactive are the calls of the source. Rule as the data show it: active = GI50 up to about 1.1 µM and inactive = higher.

System: NCI-H322M
Experiment: inhibition of tumour cell growth, NCI panel, 48 h

Structure (SMILES) | GI50
Cc1ccc(Nc2n[nH]c(NS(=O)(=O)c3cc(C)c(Cl)cc3S)n2)cc1 | inactive: > 100 µM
Cn1c(=O)c2nc(CS(=O)(=O)Cc3nc4c(=O)n(C)c(=O)n(C)c4[nH]3)[nH]c2n(C)c1=O | inactive: > 100 µM
O=C(CC(=O)c1ccncc1)c1ccccc1 | inactive: 99.1 µM
Nc1cccc(OCc2nc(N)nc(N)c2-c2ccc(Cl)cc2)c1 | inactive: 76.4 µM
CC(C)(C)CC(C)(C)c1cc2c(O)c(c1)Cc1cc(C(C)(C)CC(C)(C)C)cc(c1O)Cc1cc(C(C)(C)CC(C)(C)C)cc(c1O)Cc1cc(C(C)(C)CC(C)(C)C)cc(c1O)Cc1cc(C(C)(C)CC(C)(C)C)cc(c1O)C2 | inactive: > 100 µM
Cn1c2c(c3ccccc31)CCN1OCC=C[C@@H](C(=O)O)[C@@H]21 | inactive: > 100 µM
C=CCN(CCNS(=O)(=O)c1ccc(C)cc1)S(=O)(=O)c1ccc(C)cc1 | inactive: > 100 µM
O=C(C=P(c1ccccc1)(c1ccccc1)c1ccccc1)c1ccc(-c2cccs2)cc1 | inactive: 4.33 µM
O=c1[nH]c2cc(C(F)(F)F)ccc2nc1Cc1ccccc1 | inactive: > 100 µM
CC(=O)N/N=C1\NC(=O)C[C@H]2[C@@H]3CC=C4C[C@@H](OC(C)=O)CC[C@]4(C)[C@H]3CC[C@]12C | inactive: 25.5 µM
O=C1C(=c2cc3c(c4ccccc24)=NC24CCCCC2C(c2ccccc2)C=C(c2ccccc2)N34)C(=O)c2ccccc21 (stereo not given) | inactive: 96.8 µM
Cc1ccc(SC2C(=O)C3CC(OCc4ccccc4)C2(C)C3(C)C)cc1 (stereo not given) | inactive: > 100 µM
COc1ccccc1C(C1=C(O)COC1=O)c1cc2c(cc1OC(C)=O)OCO2 (stereo not given) | inactive: > 100 µM
c1ccc(-c2cn3nc(N4CCOCC4)sc3n2)cc1 | inactive: > 100 µM
O=S(=O)(O)c1c(Cl)c(Cl)c(O)c2ncccc12 | inactive: 11.9 µM
N=C(N)NS(=O)(=O)c1ccc(NC(=O)c2cccc3c(N)c4ccccc4nc23)cc1 | inactive: 53.7 µM
CCCCCCCCCCC(=O)CC(=O)c1c(O)cccc1O | inactive: 40.7 µM
CC1(C)CC(=O)c2c(nc3c4c([nH]c(-c5ccc(Br)cc5)c24)CC(C)(C)C3)C1 | inactive: > 100 µM
CCOC(=O)C1=C(C)N(Cc2ccccc2)C(=O)C1CC#N (stereo not given) | inactive: > 100 µM
CN1N=C(c2ccccc2)C(C(c2ccccc2[N+](=O)[O-])C2C(=O)N(C)N=C2c2ccccc2)C1=O (stereo not given) | inactive: > 100 µM
O=C(c1ccccc1)c1ccc(OCCOc2ccc(Nc3ccccc3)cc2)cc1 | inactive: > 100 µM
C=CC1(NS(=O)(=O)c2ccc(C)cc2)CCC(C(C)(C)C)CC1 (stereo not given) | inactive: > 100 µM
CC(=O)O[C@@H](C1C[C@@H](C)[C@H]2[C@@](O)(O1)[C@H](O)[C@@]1(C)C3=CC[C@H]4C(C)(C)[C@@H](OC5OCC(O)C(O)C5O)CC[C@@]45C[C@@]35CC[C@]21C)C(C)(C)O (stereo not given in full) | inactive: 35.3 µM

Structure (SMILES) | GI50
N=C(N)N/N=C/c1c(-c2cccc([N+](=O)[O-])c2)nc2n1CCS2 | inactive: 21.4 µM
CC1=C(c2cc(C(=O)Nc3cc(C)ccc3C)nc(N)n2)Sc2ccccc2N1 | inactive: > 100 µM
C=CCc1cc(OC)c2c(c1)C(OC)CC(c1ccc(OC)c(OC)c1)O2 (stereo not given) | inactive: > 100 µM
Cc1cn(C2CC(O)C(Cn3cc(Cn4ncc(=O)[nH]c4=O)nn3)O2)c(=O)[nH]c1=O (stereo not given) | inactive: > 100 µM
COc1ccc2nc3cccc(C(=O)NCCN(C)C)c3nc2c1 | inactive: 1.53 µM
O=C(Cc1ccc([N+](=O)[O-])c([N+](=O)[O-])c1CC(=O)C(=O)Nc1cc(Cl)ccc1Cl)C(=O)Nc1cc(Cl)ccc1Cl | inactive: > 100 µM
O=C1CC2C=CC1C2CO (stereo not given) | inactive: > 100 µM
NCCCC[C@H](N)C(=O)Nc1ccc(-c2nc3ccccc3s2)cc1Cl | inactive: 12.4 µM
O=C(NNS(=O)(=O)c1ccc(Br)cc1)c1ccc(Cl)cc1NC(=O)C12CC3CC(CC(C3)C1)C2 | inactive: 17.5 µM
N#CC(c1ccccc1)N(CCc1ccccc1)C(=O)Oc1ccccc1 (stereo not given) | inactive: > 100 µM
CN(C)/N=C(/c1nc2ccc([N+](=O)[O-])cc2nc1O)C(O)c1ccco1 (stereo not given) | inactive: > 100 µM
CC1=CCP(C(F)(F)F)P(C(F)(F)F)C1 (stereo not given) | inactive: > 100 µM
O=C(CC1(O)C(=O)Nc2c(Cl)cc(Cl)cc21)c1ccccc1 (stereo not given) | inactive: > 100 µM
Cc1ccc(Cl)c(NC(=O)C(=O)C(C(=O)c2ccncc2)C2OC(=O)c3ccccc32)c1 (stereo not given) | inactive: > 100 µM
NC(CO)c1ccc(OCc2ccccc2)cc1 (stereo not given) | inactive: > 100 µM
COP(=O)(OC)[C@@](O)(c1ccccc1)[C@@H](O)[C@@H](O)c1ccccc1 | inactive: > 100 µM
CSc1ccc(/C=C2\CN(C)C/C(=C\c3ccc(SC)cc3)C2=O)cc1 | inactive: 65.9 µM
C=CCOC1CC(n2cnc3c(N)ncnc32)OC1CO (stereo not given) | inactive: > 100 µM
CCc1cc2c(c3[nH]ccc13)[C@@H](C)C[C@H]2C | inactive: 17.7 µM
NC1=Nc2cc(Cl)ccc2Sc2nc3ccccc3n21 | inactive: > 100 µM
O=C(NC12CC3CCC1CC(C3)C2)[C@@H]1CCCN1C(=O)OCc1ccccc1 (stereo not given in full) | inactive: > 100 µM
O=C(Oc1c(Br)cc(Br)cc1C(=O)Oc1ccccc1)C(=O)Oc1c(Br)cc(Br)cc1C(=O)Oc1ccccc1 | inactive: > 100 µM
COc1cc2c(cc1OC)C(C(CO)CO)N(CC(O)CCl)CC2 (stereo not given) | inactive: > 100 µM

Structure (SMILES) | GI50
O=C(c1cccnc1)N1N=C(c2ccccc2)CC1(O)c1cc(F)c(Cl)cc1Cl (stereo not given) | inactive: 32.2 µM
C=C(C[C@@H](O)[C@H](C)NC(=O)OCc1ccccc1)C(=O)OC(C)(C)C | inactive: > 100 µM
COC(=O)c1ccc(/C=C(\c2ccc([N+](=O)[O-])o2)S(=O)(=O)c2ccc(NC(C)=O)cc2)o1 | inactive: 18.7 µM
Cc1nc(N)nc(CCC(=O)Nc2cccc(C(F)(F)F)c2)c1-c1ccc(Cl)cc1 | inactive: > 100 µM
COc1ccc(/N=c2/oc3ccccc3cc2C(N)=O)cc1 | inactive: > 100 µM
CC(C)(c1ccccc1)c1ccc(Oc2ccc(C#N)c(C#N)c2)cc1 | inactive: > 10 µM
O=C1c2ccccc2C2CCC1c1ccccc12 (stereo not given) | inactive: 45.3 µM
CN(C)/C=N/c1ccc2nonc2c1 | inactive: > 100 µM
Cc1cc2nc(O)c(C(C)C(=O)c3ccc(Cl)cc3)nc2cc1C (stereo not given) | inactive: 38.6 µM
CN/N=C(\C(=O)Nc1ccc(C)c(C)c1)C(C(=O)OC)c1nc2ccc([N+](=O)[O-])cc2nc1O (stereo not given) | inactive: > 100 µM
COc1cc(OC)c(OC)cc1/C=C/c1ccccn1 | inactive: > 10 µM
O=c1[nH]c2ccc(Cl)cc2o1 | inactive: > 100 µM
COc1ccc(OCC(=O)O)c2c1CCCC2=O | inactive: > 100 µM
CCN(CC)CCO/N=C1\CC[C@H]2[C@@H]3CC=C4C[C@@H](O)CC[C@]4(C)[C@H]3CC[C@]12C | inactive: 20.4 µM
OC(c1cc2ccccc2[nH]1)C1(c2cccnc2)SCCCS1 (stereo not given) | inactive: > 100 µM
Cc1cc(O)c(C(C)C)cc1/N=C/c1ccccc1O | inactive: 13.8 µM
CSC1=NC=CCN1C | inactive: > 100 µM
CC(=O)O[C@H]1C(=O)[C@@]2(C)[C@H]([C@H](OC(=O)C3CCCCC3)[C@]3(O)C[C@H](OC(=O)[C@H](O)[C@@H](NC(=O)C4CCCCC4)C4CCCCC4)C(C)=C1C3(C)C)[C@]1(OC(C)=O)CO[C@@H]1C[C@@H]2O | active: 0.0492 µM
N=C(c1ccc2ccccc2c1)c1ccccc1Cc1ccccc1 | inactive: 23.9 µM
CN(C)CCNC(=O)c1c(O)ccc2c1c1c(n2CCc2ccccc2)C(=O)c2ccccc2C1=O | inactive: 7.59 µM
COC1CCN(N(C)C)O1 (stereo not given) | inactive: > 100 µM
Cc1ccc(/N=C2\OP(=O)(Nc3ccc(C)cc3)Oc3ccccc32)cc1 (stereo not given) | inactive: > 100 µM
COP(=O)(OC)C(O)/C=C/c1ccco1 (stereo not given) | inactive: > 100 µM

Structure (SMILES) | GI50
CCOP(=O)(OCC)C1CCCCOC1=O (stereo not given) | inactive: > 100 µM
CS(=O)(=O)c1ccc(-c2cc(-c3ccc(S(C)(=O)=O)cc3)[n+](-c3cc(-c4ccc(S(C)(=O)=O)cc4)c([O-])c(-c4ccc(S(C)(=O)=O)cc4)c3)c(-c3ccc(S(C)(=O)=O)cc3)c2)cc1 | inactive: > 100 µM
C[C@@H](CC(=O)OCc1ccccc1)OC1OC(COC(=O)C(C)(C)C)C(OC(=O)C(C)(C)C)C(OC(=O)C(C)(C)C)C1OC(=O)C(C)(C)C (stereo not given in full) | inactive: > 100 µM
Nc1ccc2c(=O)cc(-c3cccs3)[nH]c2n1 | inactive: 3.27 µM
CC(=O)C(CN(C(C)C)C(C)C)C(c1ccccc1)c1c(O)c2ccccc2oc1=O (stereo not given) | inactive: > 100 µM
Cc1cccc(NC(=S)N/N=C(/c2ccccc2)c2ccccn2)c1 | active: 0.14 µM
CC1=NCC[N+]1(CCc1ccccc1)Cc1ccccc1 (stereo not given) | inactive: > 100 µM
CCCCC/C(=N\c1[nH]cnc1C(N)=O)OCC | inactive: > 100 µM
COc1ccc(NC(=O)COC(=O)c2cccc3c(=O)c4ccccc4[nH]c23)cc1 | inactive: 29.9 µM
COC(=O)C(N)CCCC(N)C(=O)NC(C)C(=O)NC(CCC(=O)NCCCNc1ccc([N+](=O)[O-])c2[nH]c3ccccc3c(=O)c12)C(N)=O (stereo not given) | inactive: 8.2 µM
Cc1ccc2c(c1)C(=C(C#N)C#N)CCCS2(=O)=O | inactive: > 100 µM
O=S(=O)(O)c1ccc(/N=N/c2ccc3c(S(=O)(=O)O)cccc3c2O)c2ccccc12 | inactive: > 100 µM
C/C(=C\c1ccccc1)C(O)S(=O)(=O)O (stereo not given) | inactive: > 100 µM
N[C@H]1CCC[C@@H](O)C1O (stereo not given in full) | inactive: > 100 µM
COc1ccc(C2COc3cc(O)c(O)cc3C2)cc1 (stereo not given) | inactive: 55.7 µM
CC(C)C1COC(c2cccc(C3=N[C@@H](C(C)C)CO3)n2)=N1 (stereo not given in full) | inactive: > 100 µM
Cc1cn(C2CC3C(COCN3O)O2)c(=O)[nH]c1=O (stereo not given) | inactive: > 100 µM
Brc1ccc(C[N+]23CN4CN(CN(C4)C2)C3)cc1 | inactive: > 100 µM
c1ccc2c(CNCCCCCCNCc3cccc4ccccc34)cccc2c1 | inactive: 2.98 µM
COc1ccc(C(=O)c2sc(Nc3ccccc3)nc2N)cc1 | inactive: > 100 µM
CN1CC(=O)N(C)c2ncn(Cc3ccccc3)c2C1=O | inactive: > 100 µM
